The list shows a part of the results.
Target: T1, RBFOX1 RRM (Homo sapiens) (UniProt Q9NWB1)
T1 sequence: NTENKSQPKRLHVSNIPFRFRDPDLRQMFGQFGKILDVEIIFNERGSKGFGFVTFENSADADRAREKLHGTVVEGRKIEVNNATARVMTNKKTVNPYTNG
Assay: EMSA
Details: HiTS-Eq, 1 nM pool, 10 min; buffer printed only for the single-RNA assays: 10 mM Tris pH 7.5, 150 mM NaCl, 3.4 mM EDTA, 0.001% NP-40, 30 C

| Sequence | binding signal (KA relative to UGCAUGU) |
| --- | --- |
| GGGAGACCGGAAUUCAGAUUGUCCUCCCACGUUAAAUCCCGUCGUAGCCACCA / CAATCTGAATTCCGGTCTCCC / TGGTGGCTACGACGGGATT | 0.00822 |
| GGGAGACCGGAAUUCAGAUUGUCCUCCCGAAUUAAAUCCCGUCGUAGCCACCA / CAATCTGAATTCCGGTCTCCC / TGGTGGCTACGACGGGATT | 0.0168 |
| GGGAGACCGGAAUUCAGAUUGUCCGGCUCCUUUAAAUCCCGUCGUAGCCACCA / CAATCTGAATTCCGGTCTCCC / TGGTGGCTACGACGGGATT | 0.0115 |
| GGGAGACCGGAAUUCAGAUUGUCCCCCAUCAUUAAAUCCCGUCGUAGCCACCA / CAATCTGAATTCCGGTCTCCC / TGGTGGCTACGACGGGATT | 0.00334 |
| GGGAGACCGGAAUUCAGAUUGUCCGACUCCCUUAAAUCCCGUCGUAGCCACCA / CAATCTGAATTCCGGTCTCCC / TGGTGGCTACGACGGGATT | 0.00712 |
| GGGAGACCGGAAUUCAGAUUGUCCGGCCCACUUAAAUCCCGUCGUAGCCACCA / CAATCTGAATTCCGGTCTCCC / TGGTGGCTACGACGGGATT | 0.00146 |
| GGGAGACCGGAAUUCAGAUUGUCCCCACCUCUUAAAUCCCGUCGUAGCCACCA / CAATCTGAATTCCGGTCTCCC / TGGTGGCTACGACGGGATT | 0.00505 |
| GGGAGACCGGAAUUCAGAUUGUCCCCCAACUUUAAAUCCCGUCGUAGCCACCA / CAATCTGAATTCCGGTCTCCC / TGGTGGCTACGACGGGATT | 0.0195 |
| GGGAGACCGGAAUUCAGAUUGUCCGGUCCCGUUAAAUCCCGUCGUAGCCACCA / CAATCTGAATTCCGGTCTCCC / TGGTGGCTACGACGGGATT | 0.00897 |

— PMC9911399
